# Source: the supplement of paper PMC11383711
# Some of the results follow. Binding of human antibodies (heavy:light variable regions, tested as scFv in one mRNA-display pool) to influenza hemagglutinin, with or without the stem antibody CR9114 bound first. Score = (mean enrichment − median) / interquartile range of that screen; higher = more enriched, 0 = typical non-binder. Active = above the paper's cut-off per screen: stems 28; unblocked H1 Solomon Islands 5, H1 Michigan 3, H3 5, H5 19, H7 2.85, both B 5; blocked 9, 7, H5 10, H7 10, B Phuket 10, B Lee 11.5. Scores are scaled within each screen and are no affinities; replicates correlate at about 0.6 to 0.9, and antibodies rare in the pool are noisier.
# B1: antibody 3G01 (protein)
# chain 1: VQLVESGGGVVQPGRSLRLSCAASGFTFGSYGMHWVRQAPGKGLEWVSVIYYDGRNKYYADSVKGRFTISRDNLKNTLYLQMNSLRAEDTAVYYCARDHNSYHYFDYWGRGTLVTVSS
# chain 2: NFMLTQPRSVSGSPGETVTISCTSSGRIVSGYVQWCQQRPGSAPITVIYESDQRPSGVPNRFSGSIDSSSQSASLTISGLETEDEADYYCQSSDRDNQGIFGGGTRLTVL
# B2: R95-2E02 (protein)
# chain 1: EVQLVESGGGLIQPGGSLRLSCTASGFTFHDHAMHWVRQPPGKGLEWVSGISWNGGDMKYGGSVKGRFITSRDNGKKSLYLQMNSLRPEDTAVYYCAKEISVRYYDFWSGYLGKPRGMDVWGQGTTVTVSS
# chain 2: QSVLTQPPAASGTPGQTVNITCSGSPSNIGSETVNWYQRLPGTAPKLLIYSSNQRPSGVPDRFSGSKYGTSASLVISGLQSEDEGDYYCAVWDESRNGFYVFGTGTKVTVL
# B3: C1-3E05 (protein)
# chain 1: VQLQESGPGLVTPSETLSLTCTVSGGSISSTIHYWGWIRQPPGKGLEWIGSVYYDGMTYHNPSLKSRVTMSADTSKNQFSLELSSVTAADTAVYFCARQQEGYYYYYGMDVWGQGTTVTVSS
# chain 2: EIVLTQSPGTLSLSPGERATLSCRASQSVNSNYLAWYQQKPGQAPRLLIYGASSRATGIPDRFSGSGSGTDFTLTISRLEPEDFAVYYCQQYTSPGFTFGPGTKVDIK
# B4: W85-3G10 (protein)
# chain 1: EVQLVDSGGGVVRPGRSLRLSCAASGFTFSSYAMHWVRQAPGRGLEWVTFISHDGSNVYYADSVTGRFTISRDNSKNTLYLQMNSLRVEDTAVYYCARDYCSTSSCYVDYWGQGTLVTVSS
# chain 2: NFMLTQPHSVSESPGKTVTISCTGSSGSIAYNYVQWYQQRPGSAPTTVIYEDNHRPSGVPDRFSGSVDSSSNSASLTISGLKTEDEADYYCQSYDSSNHVVFGGGTTADRP
# B5: K77-2C09 (protein)
# chain 1: QVQLVQSGAEVKKPGASVKVSCKASGYTFNKYYMHWVRQAPGQGLEWMGVINPSGGSTTYAQKFQGRVTMTRDTSTSTVFMDLSSLRSEDTAVYYCATDIAIVPTAPFYGMDGWGQGTAVTVSS
# chain 2: DIVMTQSPLSLPVTPGEPASISCRSSQSLLHSDGHNCLGWYLRKPGQPPQLLIYLGSFRASGVPDRFSGSGSGTDFTLKISRVEAEDVGVYYCMQTLQTPLTFGGGTKVEIK
# B6: W85-1E02 (protein)
# chain 1: EVQLVESGGGVVQSGRSLRLSCAASGFTFSSYALHWVRQAPGKGLEWVAVISYDASEKYYADSVKGRFTISRDKSKKTLYLQMNSLRAEDTAVYYCARSHFYYDSGDYWGQGTLVTVSS
# chain 2: DIQMTQSPSTLSASVGDKVTITCRASQSINRWLAWYQQKPGKAPKLLIYRASSLESGVPSRFSGSGSGTEFTLTISSLQPDDFATYFCQHYEGYSWTFGQGTKVDIK
# B7: R95-2A07 (protein)
# chain 1: QVQLVQSGSEVKKPGASVKVFCKASGYTFFNHYIHWVRQAPGQRLEWLGWVNTGNGDTKYAQKFQGRVTITRDTAARAAYMELSSLMSEDTAIYYCAREGTLGWGWDLRNEFYFMDVWGTGTTVIVSS
# chain 2: QSALTQPPSVSGAPGQRVTISCTGSSSNIGAGFEVHWYQQLPGSAPKLLISGSGARPSGVPDRFSASKSATSASLAITGLQAEDEADYYCQSYDSTLSGVLFGGGTKLTVL
# B8: 017-10-5E01 (protein)
# chain 1: QVQLQESGPGLVKPSQTLSLTCNVSGISMSSPGSFWSWLRQRPGKGLEWLGYVSHSGHTKYTPSLKSRLSISLDVSQDQFSLRLNFVTAADTAVYYCAREYQEQIGRAFDFWGQGTLVTVSS
# chain 2: DIQMTQSPSSLSASVGDRVTITCRASQRINTFLNWYQLKPGKAPKLLIYAASHLQSGVPSRFSATGFGTDFTLSISSLQPEDLATYYCQPTFTPSYTFGQGTKVEIK
# B9: C8-A06 (protein)
# chain 1: VQLVQSGVEVKKPGASVKVSCKTSGYTFTSFDIDWVRQAPGQGLEWMGWMNPNSGTTGYAQKFQGRVTMTRNTSISTAYMELSSLRSDDTAVYYCARGKSTITTYWFDPWGQGTLVTVSS
# chain 2: DIVMTQSPDSLAVSLGERATINCKSSQTVLSNSNNENYLTWYQQKPGQPPRLLIYWASTRESGVPDRFTGSGSGTDFTLTISSLQAEDVAVYYCQQYYSNPYTFGQGTKVEIK
# B10: C1-2-2D06 (protein)
# chain 1: VQLQESGPGLVKPSETLSLTCTVSDYFINNGYYWAWIRQAPGKGLEWIGSIYHSGSTFYNPSLKSRVTISVDTSENQISLRLRSVTAADSAVYYCARQSIYTGNHFPKFDPWGQGTLVTVSS
# chain 2: AIQLTQSPSSLSASVGDRVTITCRASQGISSALAWYQQKPGKTPKLLIYDTSNLESGVPSRFSGSGSGTDFTLTISSLQPEDFATYYCQQFNSYPPEVTFGGGTKVEIK
# Tests used:
# [1] = target: H1 HA stem construct (mini-HA #4900); assay: mRNA display binding score; higher = more enriched on the antigen; conditions: antigen blocked with: nothing
# Method: (§1)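 A pool of natively paired antibodies, displayed as scFv on mRNA, was selected once on antigen-coated beads and sequenced before and after; two replicates.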
# [2] = target: H3 HA stem construct (H3ssF); assay: as above; conditions: antigen blocked with: nothing
# Method: as §1
Binder,mRNA display binding score [1],mRNA display binding score [2]
B1,inactive: -0.314,inactive: -0.255
B2,inactive: -0.531,inactive: -0.309
B3,inactive: -0.462,inactive: -0.584
B4,inactive: -0.0289,inactive: 0.418
B5,inactive: -0.194,inactive: 1.71
B6,inactive: 0.589,inactive: -0.0453
B7,inactive: -0.171,inactive: 1.44
B8,inactive: 0.0492,inactive: 0.624
B9,inactive: 0.176,inactive: -0.302
B10,inactive: -0.718,inactive: -0.474
